# Variants at the background level are over-represented here.
# B1: TPR 5TU (parent)
# chain: GGAUCUUCUCGAUCUAACAAAAAAGACAAAUCUGCCACAAAGCUUGAGAGCAUCUUCGGAUGCAGAGGCGGCAGCCUUCGGUGGCGCGAUAGCGCCAACGUUCUCAACUAUGACACGCAAAACGCGUGCUCCGUUGAAUGGAGUUUAUCAUG
# Variants of: B1
# Experiment: polymerase ribozyme fitness, log enrichment relative to wild type (log ratio); higher = more active; in vitro selection for triplet polymerase activity
# Method in brief: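 Each subunit of a heterodimeric triplet polymerase ribozyme was represented by a PCR-built, transcribed mutant library that underwent triplicate single-round in vitro selection with frozen incubation at −7 °C. Extended constructs were recovered by gel excision, streptavidin-bead capture and RT-PCR, and Illumina sequencing of input and output libraries kept genotypes with ≥10 input reads and ≥1 read per output. Fitness is the logarithm of genotype enrichment relative to wild-type enrichment, from inverse-variance-weighted replicate averages, with a logarithm base of 2.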
row,Variant,polymerase ribozyme fitness (log ratio)
1,U44A C103G,≤ -4.2
2,C43U G84U A113U,≤ -4.2
3,U44G C63A G68U C87U,≤ -4.2
4,G42C G71U C118G G136A,≤ -4.2
5,G42U U55A A97G,≤ -4.2
6,G42C G58C G59A A60U G62A G70A C85U C95A A110G U134C,≤ -4.2
7,G42A C85U,≤ -4.2
8,U44A G50C C85G G136A,≤ -4.2
9,C43U C103A C125A G136U U144A,≤ -4.2
10,G42A U77G G83C A110G U145A,≤ -4.2
11,C43A A47C A49G U77C C85U A138U,≤ -4.2
12,G42A C43A U82A A98G,≤ -4.2
13,U44A G58U A66C U127G U145G,≤ -4.2
14,G42C U55A U61A C75A A106G G133C,≤ -4.2
15,A41C U44A G126U G133C G141C,≤ -4.2
16,G42C C87A G88A G140U,≤ -4.2
17,A41U C103G G128U,≤ -4.2
18,A41G A49C U55G G88C A119G G126A,≤ -4.2
19,C43U U53A G68U G86A A106U A147U,≤ -4.2
20,A41U U55A G81C C114G,≤ -4.2
21,G42C C85G U127A,≤ -4.2

row,Variant,polymerase ribozyme fitness (log ratio)
1,A41C U55A C85G G86C C103G G143A,≤ -4.2
2,G42A A49C A66C,≤ -4.2
3,U44G A98U,≤ -4.2
4,G42C A47C C57U G81C C95A,≤ -4.2
5,G42A G86A C103U A119C,≤ -4.2
6,C43G G84A A89C U101G G141A U146G,≤ -4.2
7,A41U A89U C93U G117U A147U,-2.89
8,U44A C96G C149U,≤ -4.2
9,G42A G58C C79G C87U A115U,≤ -4.2
10,G42C G88U C95A,≤ -4.2
11,C43G C85G C87U C96U C118A A119U A120G,≤ -4.2
12,G42U C85A C99U A106G A138U A150G,≤ -4.2
13,U44A C72U C76A C85A C93U U127G G133A U151G,≤ -4.2
14,C43U A49C A73U C85U C103G U130C U134A,≤ -4.2
15,U44C C96U C103G A115C,-4.19
16,U44G A60U C99G U111G G141C,≤ -4.2
17,G42C C63U G92U C95U A122C,≤ -4.2
18,G42A G92C U104C,≤ -4.2
19,G42A U53G C87A,≤ -4.2
20,A41G A47G U56A C63U A73U C105U C125U,≤ -4.2
21,C43G C76U C99A C131G U144C,≤ -4.2

row,Variant,polymerase ribozyme fitness (log ratio)
1,U44A C85U C87A G117U G141U,≤ -4.2
2,C43U A66U G83A,≤ -4.2
3,A41G C76A U77G G112A C116U A142C,≤ -4.2
4,A41U A49G A52C G84A C103G A115U,≤ -4.2
5,G42C C95A,≤ -4.2
6,C43U G59A G92A C95A,≤ -4.2
7,G42U U44A C54G G83U U139G U144A,≤ -4.2
8,C43G G94A,-3.81
9,G42U G86U A97C,≤ -4.2
10,C43U C96G,≤ -4.2
11,C43A A60G C95U C114G,≤ -4.2
12,G42U G70U A89G U90G U104A A120C U144A,≤ -4.2
13,G42A U53A C96U U130C,≤ -4.2
14,U44A U78G C129U,≤ -4.2
15,A41U G58A C85U A110U G124C A147U,≤ -4.2
16,G42U C57U G59C U61A C85A U111C G136C U148G,≤ -4.2
17,U44A G81A G86U A89G U134C U146A,≤ -4.2
18,U44A U56A C85G A91C,≤ -4.2
19,U44G A52G U55A C85G U135C A147U,≤ -4.2
20,C43U U82G A89G C116A,≤ -4.2
21,G42A U109C,≤ -4.2

row,Variant,polymerase ribozyme fitness (log ratio)
1,U44A G117U,≤ -4.2
2,G42C G50U G74A C95G C123U,≤ -4.2
3,G42A U44A C54G G58C C75A C93G,≤ -4.2
4,A41G U45A A91C G94A C116A C123U C131A,≤ -4.2
5,G42U U44G A60G G71A G86A A106U U134G U135C,≤ -4.2
6,G42C G50A A89U G92A A138U G141C,≤ -4.2
7,G42U U127A,≤ -4.2
8,G42A C57G G92U U102G C114U A121C,≤ -4.2
9,A41U C95U C99U G141C,-2.51
10,U44C G59A A91U,-4
11,U44A C75G U104C A119U A122U C149A,≤ -4.2
12,C43A U78G G86U,≤ -4.2
13,G42C U44A A49C G126C C131A A142G A147U,≤ -4.2
14,G42C U44G G88A A97C,≤ -4.2
15,U44G A47C C76A G83A A107U A120U G141C,≤ -4.2
16,A41U C72G U90G C99G G112U C118U,≤ -4.2
17,G42C U55A U61A C76G G124C A147C,≤ -4.2
18,A41C U53A U56A A66C C79G G84U,≤ -4.2
19,G42A C79G U144C,≤ -4.2
20,U44A C51A A52C G58A A97U A142C U144G,≤ -4.2
